Source: the supplement of paper PMC8728848
The other results are listed elsewhere or left out.

Experiments:
Experiment in all cases: glycan array binding signal (z-score within array); higher = stronger binding
Conditions in all cases: glycan notation: IUPAC condensed, linker removed
Fuc(a1-2)Gal = biological target: Fuc(a1-2)Gal
Summary of the method: (§1)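 Glycan array data came from 3228 arrays in the Consortium for Functional Glycomics database, and only arrays with an available protein sequence were kept. Glycan names were put into IUPAC-condensed notation, and columns mapping to the same glycan were averaged. The binding signal is a within-array Z-score, averaged across arrays of one protein sequence run at different concentrations or buffers and across linkers. A negative Z-score can be read as non-binding.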

Fuc(a1-2)Gal(b1-3)GalNAc = biological target: Fuc(a1-2)Gal(b1-3)GalNAc
Summary of the method: as §1

[1] = biological target: Fuc(a1-2)Gal(b1-3)GalNAc(a1-3)[Fuc(a1-2)]Gal(b1-4)Glc
Summary of the method: as §1

[2] = biological target: Fuc(a1-2)Gal(b1-3)GalNAc(a1-3)[Fuc(a1-2)]Gal(b1-4)GlcNAc
Summary of the method: as §1

[3] = biological target: Fuc(a1-2)Gal(b1-3)GalNAc(b1-3)Gal
Summary of the method: as §1

[4] = biological target: Fuc(a1-2)Gal(b1-3)GalNAc(b1-3)Gal(a1-4)Gal(b1-4)Glc
Summary of the method: as §1

[5] = biological target: Fuc(a1-2)Gal(b1-3)GalNAc(b1-3)Gal(b1-4)Glc
Summary of the method: as §1

[6] = biological target: Fuc(a1-2)Gal(b1-3)GalNAc(b1-4)[Neu5Ac(a2-3)]Gal(b1-4)Glc
Summary of the method: as §1

Fuc(a1-2)Gal(b1-3)GlcNAc = biological target: Fuc(a1-2)Gal(b1-3)GlcNAc
Summary of the method: as §1

[7] = biological target: Fuc(a1-2)Gal(b1-3)GlcNAc(b1-2)Man(a1-3)[Fuc(a1-2)Gal(b1-3)GlcNAc(b1-2)Man(a1-6)]Man(b1-4)GlcNAc(b1-4)GlcNAc
Summary of the method: as §1

[8] = biological target: Fuc(a1-2)Gal(b1-3)GlcNAc(b1-2)Man(a1-3)[Fuc(a1-2)Gal(b1-3)GlcNAc(b1-2)Man(a1-6)]Man(b1-4)GlcNAc(b1-4)[Fuc(a1-6)]GlcNAc
Summary of the method: as §1

[9] = biological target: Fuc(a1-2)Gal(b1-3)GlcNAc(b1-3)Gal(b1-4)Glc
Summary of the method: as §1

[10] = biological target: Fuc(a1-2)Gal(b1-3)GlcNAc(b1-3)GalNAc
Summary of the method: as §1

[11] = biological target: Fuc(a1-2)Gal(b1-3)GlcNAc(b1-3)[Fuc(a1-2)Gal(b1-3)GlcNAc(b1-6)]GalNAc
Summary of the method: as §1

[12] = biological target: Fuc(a1-2)Gal(b1-3)GlcNAc(b1-3)[Fuc(a1-3)[Gal(b1-4)]GlcNAc(b1-6)]Gal(b1-4)Glc
Summary of the method: as §1

[13] = biological target: Fuc(a1-2)Gal(b1-3)GlcNAc(b1-3)[Gal(b1-4)GlcNAc(b1-6)]Gal(b1-4)Glc
Summary of the method: as §1

[14] = biological target: Fuc(a1-2)Gal(b1-3)GlcNAc(b1-3)[Neu5Ac(a2-6)Gal(b1-4)GlcNAc(b1-6)]Gal(b1-4)Glc
Summary of the method: as §1

[15] = biological target: Fuc(a1-2)Gal(b1-3)GlcNAc6S
Summary of the method: as §1

[16] = biological target: Fuc(a1-2)Gal(b1-3)[Fuc(a1-4)]GlcNAc
Summary of the method: as §1

[17] = biological target: Fuc(a1-2)Gal(b1-3)[Fuc(a1-4)]GlcNAc(b1-2)Man(a1-3)[Fuc(a1-2)Gal(b1-3)[Fuc(a1-4)]GlcNAc(b1-2)Man(a1-3)]Man(b1-4)GlcNAc(b1-4)GlcNAc
Summary of the method: as §1

[18] = biological target: Fuc(a1-2)Gal(b1-3)[Fuc(a1-4)]GlcNAc(b1-2)Man(a1-3)[Fuc(a1-2)Gal(b1-3)[Fuc(a1-4)]GlcNAc(b1-2)Man(a1-6)]Man(b1-4)GlcNAc(b1-4)GlcNAc
Summary of the method: as §1

[19] = biological target: Fuc(a1-2)Gal(b1-3)[Fuc(a1-4)]GlcNAc(b1-2)Man(a1-3)[Fuc(a1-2)Gal(b1-3)[Fuc(a1-4)]GlcNAc(b1-2)Man(a1-6)]Man(b1-4)GlcNAc(b1-4)[Fuc(a1-6)]GlcNAc(b1-4)[Fuc(a1-6)]GlcNAc
Summary of the method: as §1

[20] = biological target: Fuc(a1-2)Gal(b1-3)[Fuc(a1-4)]GlcNAc(b1-3)[Fuc(a1-3)[Gal(b1-4)]GlcNAc(b1-6)]Gal(b1-4)Glc
Summary of the method: as §1

[21] = biological target: Fuc(a1-2)Gal(b1-3)[Fuc(a1-4)]GlcNAc(b1-3)[Gal(b1-4)GlcNAc(b1-6)]Gal(b1-4)Glc
Summary of the method: as §1

[22] = biological target: Fuc(a1-2)Gal(b1-4)Fuc(a1-3)]GlcNAc(b1-2)Man(a1-3)[Fuc(a1-2)Gal(b1-4)[Fuc(a1-3)]GlcNAc(b1-2)Man(a1-6)]Man(b1-4)GlcNAc(b1-4)GlcNAc
Summary of the method: as §1

Fuc(a1-2)Gal(b1-4)Glc = biological target: Fuc(a1-2)Gal(b1-4)Glc
Summary of the method: as §1

Fuc(a1-2)Gal(b1-4)Glc6S = biological target: Fuc(a1-2)Gal(b1-4)Glc6S
Summary of the method: as §1

Fuc(a1-2)Gal(b1-4)GlcNAc = biological target: Fuc(a1-2)Gal(b1-4)GlcNAc
Summary of the method: as §1

[23] = biological target: Fuc(a1-2)Gal(b1-4)GlcNAc(b1-2)Man
Summary of the method: as §1

[24] = biological target: Fuc(a1-2)Gal(b1-4)GlcNAc(b1-2)Man(a1-3)[Fuc(a1-2)Gal(b1-4)GlcNAc(b1-2)Man(a1-6)]Man(b1-4)GlcNAc(b1-4)GlcNAc
Summary of the method: as §1

[25] = biological target: Fuc(a1-2)Gal(b1-4)GlcNAc(b1-2)Man(a1-3)[Fuc(a1-2)Gal(b1-4)GlcNAc(b1-2)Man(a1-6)]Man(b1-4)GlcNAc(b1-4)[Fuc(a1-6)]GlcNAc
Summary of the method: as §1

[26] = biological target: Fuc(a1-2)Gal(b1-4)GlcNAc(b1-2)[Fuc(a1-2)Gal(b1-4)GlcNAc(b1-4)]Man(a1-3)[Fuc(a1-2)Gal(b1-4)GlcNAc(b1-2)Man(a1-6)]Man(b1-4)GlcNAc(b1-4)GlcNAc
Summary of the method: as §1

[27] = biological target: Fuc(a1-2)Gal(b1-4)GlcNAc(b1-3)Gal(b1-4)GlcNAc
Summary of the method: as §1

[28] = biological target: Fuc(a1-2)Gal(b1-4)GlcNAc(b1-3)Gal(b1-4)GlcNAc(b1-2)Man(a1-3)[Fuc(a1-2)Gal(b1-4)GlcNAc(b1-3)Gal(b1-4)GlcNAc(b1-2)Man(a1-6)]Man(b1-4)GlcNAc(b1-4)GlcNAc
Summary of the method: as §1

[29] = biological target: Fuc(a1-2)Gal(b1-4)GlcNAc(b1-3)Gal(b1-4)GlcNAc(b1-3)Gal(b1-4)GlcNAc
Summary of the method: as §1

[30] = biological target: Fuc(a1-2)Gal(b1-4)GlcNAc(b1-3)GalNAc
Summary of the method: as §1

[31] = biological target: Fuc(a1-2)Gal(b1-4)GlcNAc(b1-3)[Fuc(a1-2)Gal(b1-4)GlcNAc(b1-6)]GalNAc
Summary of the method: as §1

[32] = biological target: Fuc(a1-2)Gal(b1-4)GlcNAc(b1-3)[Fuc(a1-3)[Gal(b1-4)]GlcNAc(b1-6)]Gal(b1-4)Glc
Summary of the method: as §1

[33] = biological target: Fuc(a1-2)Gal(b1-4)GlcNAc(b1-6)GalNAc
Summary of the method: as §1

[34] = biological target: Fuc(a1-2)Gal(b1-4)GlcNAc6S
Summary of the method: as §1

[35] = biological target: Fuc(a1-2)Gal(b1-4)[Fuc(a1-3)]GalNAc(b1-3)Gal(b1-4)[Fuc(a1-3)]GlcNAc
Summary of the method: as §1

[36] = biological target: Fuc(a1-2)Gal(b1-4)[Fuc(a1-3)]GalNAc(b1-3)Gal(b1-4)[Fuc(a1-3)]GlcNAc(b1-3)Gal(b1-4)[Fuc(a1-3)]GalNAc
Summary of the method: as §1

[37] = biological target: Fuc(a1-2)Gal(b1-4)[Fuc(a1-3)]GlcNAc
Summary of the method: as §1

[38] = biological target: Fuc(a1-2)Gal(b1-4)[Fuc(a1-3)]GlcNAc(b1-2)Man(a1-3)[Fuc(a1-2)Gal(b1-4)[Fuc(a1-3)]GlcNAc(b1-2)Man(a1-6)]Man(b1-4)GlcNAc(b1-4)GlcNAc
Summary of the method: as §1

[39] = biological target: Fuc(a1-2)Gal(b1-4)[Fuc(a1-3)]GlcNAc(b1-2)Man(a1-3)[Fuc(a1-2)Gal(b1-4)[Fuc(a1-3)]GlcNAc(b1-2)Man(a1-6)]Man(b1-4)GlcNAc(b1-4)[Fuc(a1-6)]GlcNAc
Summary of the method: as §1

B1: Epa1-NP (Candida glabrata), Q6VBJ0 (protein)
chain: MILNPALFLNKCVCIYTTLILLLLTNGGYATSSNDISLASKDPTTFPLGCSPDITTPKKGLSMELYSYDFRKKGSYPCWDAAYLDPNYPRTGYKSHRLLAKVDGVTGNINFYYHATKGCTPQLGHLPASYNYPKPLTMTNFTMLLYGYFRPKVTGFHTFTISADDLLFVNFGAGNAFDCCRRDSSADHFGNYQAYAIWGSKTAKDELTVHLDAGVYYPIRLFYNNREYDGALSFTFKTESNENTVSDFSEYFFSLDDTEEGCPGLISYDSSCASVKTSKIIGIDYHTETPNENLVPITKTIYHLGIPCTGTTTTPLCGSGFYDPLANKCVTINTSSTSSVTKTTSHTTSKEVSFHSSISSQKTLIPKSIPSPYGPIKSQSIPTEMETSSEISSSEYAFSDVISTPSHSPYTKKHSSLNSSSYTSTVIHSLTSYSISQGIFSTSLSEQNITSKSSTDKFSTATSMSNNITQSSIIISQFSTNNENYTTTSMHTSSDKISTETLNNSISTTTSILFSNSSTILKNNTTIISSDKDTHYHPVNPTIVCSTNKTEIICASITQPSISNSNNHWSSSVLKFNSTTVRSTLPSSAGSNETSINVPFSSSTESNTSTSSTSTSNSKMVRSTLPSSAGSNETSISVPFSSSTESNTSTSSTSTSNSKMVRSTLPSSAGSNETSINVPFSSSTESNTSTSSTSTSNSKTVRSTPFSSAGIIMTSLSQRNNKSASSYASSNSKCYNTADSCRKVHSTPSYLLTSSYTSEGVDYDCSLVSTKLKINDTNCVNNKHTTKSCLKTSVTTTIPTLEIKTARKSSSNTIGLHSYPTSSPNKSISSAPIIGYISSFKTIKTASPSYQTSDLTTITTITSLNNPGSTAVENTHESNDKSRKTSSNDISSKHSVIKETKDAVESSNKSHQTNTLKCSSIIIASSSHNSYESLGGTTLTLTLSKVYSPQNNDTLPFLEISEVNPSRTVLPESSKMMQYLTSTEERNKTARNTIATNIVSISTFHFEGEGNAIRMGYTQLLLMLIGIIVMNIGT
Fuc(a1-2)Gal
  glycan array binding signal (z-score): -0.331
Fuc(a1-2)Gal(b1-3)GalNAc
  glycan array binding signal (z-score): -0.36
[1]
  glycan array binding signal (z-score): -0.269
[2]
  glycan array binding signal (z-score): -0.21
[3]
  glycan array binding signal (z-score): -0.281
[4]
  glycan array binding signal (z-score): -0.305
[5]
  glycan array binding signal (z-score): -0.554
[6]
  glycan array binding signal (z-score): -0.171
Fuc(a1-2)Gal(b1-3)GlcNAc
  glycan array binding signal (z-score): -0.277
[7]
  glycan array binding signal (z-score): -0.291
[8]
  glycan array binding signal (z-score): -0.257
[9]
  glycan array binding signal (z-score): -0.296
[10]
  glycan array binding signal (z-score): -0.286
[11]
  glycan array binding signal (z-score): -0.255
[12]
  glycan array binding signal (z-score): -0.241
[13]
  glycan array binding signal (z-score): 0.139
[14]
  glycan array binding signal (z-score): -0.203
[15]
  glycan array binding signal (z-score): -0.241
[16]
  glycan array binding signal (z-score): -0.33
[17]
  glycan array binding signal (z-score): -0.267
[18]
  glycan array binding signal (z-score): -0.047
[19]
  glycan array binding signal (z-score): -0.282
[20]
  glycan array binding signal (z-score): -0.148
[21]
  glycan array binding signal (z-score): 0.18
[22]
  glycan array binding signal (z-score): -0.258
Fuc(a1-2)Gal(b1-4)Glc
  glycan array binding signal (z-score): -0.301
Fuc(a1-2)Gal(b1-4)Glc6S
  glycan array binding signal (z-score): -0.317
Fuc(a1-2)Gal(b1-4)GlcNAc
  glycan array binding signal (z-score): -0.325
[23]
  glycan array binding signal (z-score): -0.279
[24]
  glycan array binding signal (z-score): -0.274
[25]
  glycan array binding signal (z-score): -0.273
[26]
  glycan array binding signal (z-score): -0.29
[27]
  glycan array binding signal (z-score): -0.331
[28]
  glycan array binding signal (z-score): -0.277
[29]
  glycan array binding signal (z-score): -0.345
[30]
  glycan array binding signal (z-score): -0.262
[31]
  glycan array binding signal (z-score): -0.237
[32]
  glycan array binding signal (z-score): -0.283
[33]
  glycan array binding signal (z-score): -0.283
[34]
  glycan array binding signal (z-score): 0.048
[35]
  glycan array binding signal (z-score): -0.555
[36]
  glycan array binding signal (z-score): -0.55
[37]
  glycan array binding signal (z-score): -0.332
[38]
  glycan array binding signal (z-score): 0.119
[39]
  glycan array binding signal (z-score): -0.273
